# This is one part of the list. Sequences were assembled here from the parent chain. Inactive controls read about 0.05.
# B1: TEV protease; numbered along this chain (parent)
# chain: MGESLFKGPRDYNPISSSICHLTNESDGHTTSLYGIGFGPFIITNKHLFRRNNGTLVVQSLHGVFKVKDTTTLQQHLVDGRDMIIIRMPKDFPPFPQKLKFREPQREERICLVTTNFQTKSMSSMVSDTSCTFPSGDGIFWKHWIQTKDGQCGSPLVSTRDGFIVGIHSASNFTNTNNYFTSVPKNFMELLTNQEAQQWVSGWRLNADSVLWGGHKVFMVKPEEPFQPVKEATQL
# Variants of: B1
# Assay: raw area under fraction-flipped curve 0-4 h after induction (AUC4h, not background-subtracted), DNA-recorder readout of cleavage of the substrate (dimensionless); higher = more cleavage of the substrate by the protease variant
# Conditions: temperature: 34 °C; time window: 0-4 h after rhamnose induction
# Method: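 In vivo DNA recorder in E. coli TOP10(DE3) ΔrhaA at 34 °C. Each TEVp single-site mutant (parent TEVp 0) is paired with a single-site variant of the 7-mer TEVs (canonical ENLYFQ|S). The substrate sits between flexible linkers in a Bxb1-sfGFP-TEVs-SsrA fusion, so cleavage stabilises Bxb1 and speeds flipping of a recombination array, read by NGS. The value is the raw area under the fraction-flipped curve over 0-4 h after rhamnose induction (AUC4h), with ≥20 reads per time point. It is not background-subtracted; inactive controls average about 0.047.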
# 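Also: Bxb1 expression induced with 0.2% (w/v) L-rhamnose at OD600 near 0.5, cultures sampled hourly, flipped fraction per protease–substrate barcode pair counted by paired-end Illumina sequencing.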
Variant,area with substrate ENLYAQS,area with substrate ENLYEQS,area with substrate ENLYGQS,area with substrate ENLYHQS,area with substrate ENLYKQS,area with substrate ENLYNQS,area with substrate ENLYQQS,area with substrate ENLYTQS,area with substrate ENLYVQS,area with substrate ENLYYQS,area with substrate ENLYDQS,area with substrate ENLYIQS,area with substrate ENLYLQS,area with substrate ENLYMQS,area with substrate ENLYPQS,area with substrate ENLYRQS,area with substrate ENLYSQS,area with substrate ENLYWQS,area with substrate ENLYCQS
N52A,0.0774,0.053,0.0581,0.0627,0.0613,0.0467,0.056,0.0643,0.0757,0.0609,,,,,,,,,
I42K,0.0591,0.0428,0.0457,0.0476,0.0399,0.0529,0.0509,,,0.0465,0.0483,0.0424,0.0376,0.046,0.0464,0.0457,0.045,0.0395,
V78L,0.0718,0.0676,0.0709,0.0605,0.0502,,0.0649,0.0921,0.127,0.0489,0.047,,,,,0.066,,0.0734,
V78R,0.0511,0.0551,,0.0488,0.0654,0.0557,0.0562,0.0529,0.0499,0.0453,0.0505,,,,,,,,
G63S,0.0787,0.0622,0.0594,0.0772,0.0658,0.0684,0.0555,,0.131,0.0832,0.0583,0.119,0.0852,0.0769,0.0587,0.0268,,0.0648,
T70P,0.0616,0.0572,0.0704,0.0435,,0.047,,,0.114,,0.057,0.0618,0.0581,0.0629,0.0577,0.0659,0.0606,0.0556,0.0554
D82A,0.068,,,0.0599,,,,,0.0521,,0.0807,,0.0509,,,0.0656,,0.0523,
V67N,0.0716,0.0457,0.0754,0.0585,0.0631,,0.0397,0.0852,,,,,0.0759,,,,,,
V67K,0.0438,0.0562,,0.0569,0.0574,0.0057,0.0514,,,0.0565,0.0665,0.0659,0.0623,0.0586,0.0634,0.0582,,0.0727,
V67I,0.0861,,0.0529,0.0777,0.0676,0.071,0.062,,,,,,,,0.0656,0.0606,0.0766,,
R51W,0.0914,0.059,0.0438,0.0659,0.0418,,0.0651,0.102,,,0.0908,0.128,,,0.0898,,,,
R51P,0.0715,0.0665,0.0534,0.0709,0.0664,0.0714,0.046,0.0708,,0.0635,0.048,0.0762,,,0.0576,0.0635,,0.0458,
T71K,0.0911,,,0.0674,0.0606,0.0328,,,0.13,0.0782,,,,,,0.0772,0.0659,,
T71G,0.0971,0.0649,0.0564,0.0667,0.0283,0.059,0.061,,,,0.0469,0.079,,0.068,0.047,0.0533,,,
T71N,0.0819,0.057,0.0586,0.0493,0.0657,0.0632,,0.0693,0.101,0.0754,0.0621,0.107,0.0795,,0.0663,0.061,0.0537,,

# — the supplement of paper PMC12217912
